From the GPR68 mutational scans of Howard et al. (2025) come the findings set out here.

The labels stand for the following.
B1: GPR68, Q15743 (parent)
chain: MGNITADNSSMSCTIDHTIHQTLAPVVYVTVLVVGFPANCLSLYFGYLQIKARNELGVYLCNLTVADLFYICSLPFWLQYVLQHDNWSHGDLSCQVCGILLYENIYISVGFLCCISVDRYLAVAHPFRFHQFRTLKAAVGVSVVIWAKELLTSIYFLMHEEVIEDENQHRVCFEHYPIQAWQRAINYYRFLVGFLFPICLLLASYQGILRAVRRSHGTQKSRKDQIQRLVLSTVVIFLACFLPYHVLLLVRSVWEASCDFAKGVFNAYHFSLLLTSFNCVADPVLYCFVSETTHRDLARLRGACLAFLTCSRTGRAREAYPLGAPEASGKSGAQGEEPELLTKLHPAFQTPNSPGSGGFPTGRLA

The least precise scores are not listed. Two further conditions of the source, in which the scores hardly spread, are not listed. In variant names, del marks residues removed and ins residues inserted between the two positions. For some assays here: The data file names ogerin without a concentration.

Variants of B1 are the subject of series [1]. In words: cAMP reporter score (Enrich2 score, wild type = 0); higher = more signal; HEK293T, FACS bins.
In series [2] the parent is B1. In words: surface expression score (Enrich2 score, wild type = 0); higher = more signal; HEK293T, FACS bins.

Consider C113W, for which the cAMP reporter score in series [1] (pH 5.5) was -0.7; in series [1] (pH 6), -1.58; in series [1] (pH 6, modulator: ogerin) it was -1.11; in series [1] (pH 6.5, modulator: ogerin), -1.28. The surface expression score in series [2] was -1.18.

As to C113S, the cAMP reporter score in series [1] (pH 5.5) was 1.67; in series [1] (pH 6, modulator: ogerin) it was -4.21; in series [1] (pH 6.5, modulator: ogerin), -0.456.

Take C113A: the cAMP reporter score is -0.909 in series [1] (pH 5.5); -0.929 in series [1] (pH 6); -0.909 in series [1] (pH 6, modulator: ogerin); 1.13 in series [1] (pH 6.5, modulator: ogerin). Moreover, the surface expression score in series [2] was found to be 0.159.

C113Q: the cAMP reporter score in series [1] (pH 5.5) is -0.009; in series [1] (pH 6), -1.17; in series [1] (pH 6.5, modulator: ogerin), -0.634. Besides, the surface expression score in series [2] was -2.01.

Take C113E: the cAMP reporter score is -1.72 in series [1] (pH 5.5); -0.875 in series [1] (pH 6); -1.77 in series [1] (pH 6, modulator: ogerin); -0.998 in series [1] (pH 6.5, modulator: ogerin). Also, the surface expression score in series [2] is -3.13.

For the variant I105_Y106insGSG, the cAMP reporter score is -0.361 in series [1] (pH 5.5); -0.531 in series [1] (pH 6); -0.67 in series [1] (pH 6, modulator: ogerin); -0.431 in series [1] (pH 6.5, modulator: ogerin). Also, the surface expression score in series [2] is -0.289.

For the variant C113_C114insGS, the cAMP reporter score in series [1] (pH 5.5) was -2.26; in series [1] (pH 6), -0.958; in series [1] (pH 6, modulator: ogerin) it was -0.977; in series [1] (pH 6.5, modulator: ogerin) it was -1.21.

With I105_I107del, the cAMP reporter score is -1.75 in series [1] (pH 5.5); -0.527 in series [1] (pH 6); -1.71 in series [1] (pH 6, modulator: ogerin); -0.907 in series [1] (pH 6.5, modulator: ogerin). For the same variant, in series [2], the surface expression score is -3.68.

Regarding F111_L112insGS, the cAMP reporter score in series [1] (pH 5.5) is -0.429; in series [1] (pH 6), -0.91; in series [1] (pH 6, modulator: ogerin), -1.09; in series [1] (pH 6.5, modulator: ogerin) it was -1.06.

For G110_F111insGSG, the cAMP reporter score in series [1] (pH 5.5) is -2.01; in series [1] (pH 6.5, modulator: ogerin), -1.28. Also, the surface expression score in series [2] was -2.37.

Turning to C114T, the cAMP reporter score amounted to 0.827 in series [1] (pH 5.5); 1.35 in series [1] (pH 6, modulator: ogerin); 0.069 in series [1] (pH 6.5, modulator: ogerin). In series [2], the surface expression score was -0.954.

For the variant C114W, the cAMP reporter score in series [1] (pH 5.5) is -0.44; in series [1] (pH 6) it was -0.596; in series [1] (pH 6, modulator: ogerin), -1.52; in series [1] (pH 6.5, modulator: ogerin) it was -1.26. In series [2], the surface expression score is -2.5.

Take C114M: the cAMP reporter score in series [1] (pH 5.5) was 0.576; in series [1] (pH 6) it was 0.742; in series [1] (pH 6, modulator: ogerin), 0.265; in series [1] (pH 6.5, modulator: ogerin), -0.577. Also, the surface expression score in series [2] was -1.9.

C114P: the results for the cAMP reporter score in series [1] (pH 5.5) and in series [1] (pH 6) were -2.29 and -1.71, respectively. Also, in series [2], the surface expression score was -2.39.

For C114R, the cAMP reporter score was -1.16 in series [1] (pH 5.5); -0.529 in series [1] (pH 6); -1.98 in series [1] (pH 6, modulator: ogerin); -1.73 in series [1] (pH 6.5, modulator: ogerin). Also, the surface expression score in series [2] was -2.57.

As for C114F, the cAMP reporter score is 0.095 in series [1] (pH 5.5); -0.51 in series [1] (pH 6); -1.34 in series [1] (pH 6, modulator: ogerin); -0.58 in series [1] (pH 6.5, modulator: ogerin). Also, the surface expression score in series [2] was -1.36.

Turning to C114G, the cAMP reporter score is -0.172 in series [1] (pH 5.5); 0.453 in series [1] (pH 6); -0.419 in series [1] (pH 6, modulator: ogerin); -0.737 in series [1] (pH 6.5, modulator: ogerin). The surface expression score in series [2] was -0.896.

Take C114N: the cAMP reporter score in series [1] (pH 5.5) is -2.38; in series [1] (pH 6), -1.39; in series [1] (pH 6, modulator: ogerin) it was -1.76; in series [1] (pH 6.5, modulator: ogerin), -0.969. Besides, in series [2], the surface expression score is -2.35.

Regarding C114K, the cAMP reporter score in series [1] (pH 5.5) was -0.855; in series [1] (pH 6.5, modulator: ogerin), -0.988. Also, the surface expression score in series [2] is -2.54.

C114Q: the cAMP reporter score in series [1] (pH 5.5) is -0.815; in series [1] (pH 6), 0.591; in series [1] (pH 6, modulator: ogerin) it was -1.75; in series [1] (pH 6.5, modulator: ogerin), -1.08. In addition, the surface expression score in series [2] was -2.15.

Turning to C114L, the cAMP reporter score is -1.57 in series [1] (pH 5.5); -1.19 in series [1] (pH 6); -1.46 in series [1] (pH 6, modulator: ogerin); -2.03 in series [1] (pH 6.5, modulator: ogerin). Also, the surface expression score in series [2] is -2.82.

With C114S, the cAMP reporter score in series [1] (pH 5.5) is -0.596; in series [1] (pH 6), -1.02; in series [1] (pH 6, modulator: ogerin), -0.99; in series [1] (pH 6.5, modulator: ogerin), -1.29. Also, the surface expression score in series [2] was -1.57.

Turning to C114I, the cAMP reporter score in series [1] (pH 5.5) is 1.62; in series [1] (pH 6, modulator: ogerin), 1.43; in series [1] (pH 6.5, modulator: ogerin), -0.426. In addition, the surface expression score in series [2] is -0.389.

Turning to C114D, the cAMP reporter score in series [1] (pH 5.5) was -0.584; in series [1] (pH 6) it was -0.578; in series [1] (pH 6, modulator: ogerin), -1.42; in series [1] (pH 6.5, modulator: ogerin), -0.635. In series [2], the surface expression score was -1.35.

In the case of C114V, the cAMP reporter score in series [1] (pH 5.5) turned out to be 0.554; in series [1] (pH 6), 2.12; in series [1] (pH 6, modulator: ogerin) it was 0.483; in series [1] (pH 6.5, modulator: ogerin) it was 0.866. In series [2], the surface expression score is -0.832.

For the variant C114A, the cAMP reporter score in series [1] (pH 5.5) is -0.016; in series [1] (pH 6) it was 0.56; in series [1] (pH 6, modulator: ogerin), -0.394; in series [1] (pH 6.5, modulator: ogerin) it was 0.614. Also, the surface expression score in series [2] is 0.123.

Turning to C114H, the cAMP reporter score was -1.72 in series [1] (pH 5.5); -1.17 in series [1] (pH 6, modulator: ogerin); -0.839 in series [1] (pH 6.5, modulator: ogerin). Besides, the surface expression score in series [2] is -2.54.

In the case of C114Y, the cAMP reporter score was -0.763 in series [1] (pH 5.5); -0.356 in series [1] (pH 6); -1.02 in series [1] (pH 6, modulator: ogerin); -0.797 in series [1] (pH 6.5, modulator: ogerin). The surface expression score in series [2] is -0.786.

Regarding C114E, the values for the cAMP reporter score in series [1] (pH 5.5) and in series [1] (pH 6) were -0.424 and -0.704, respectively.

In the case of I115_S116insGS, the cAMP reporter score in series [1] (pH 5.5) was -2.06; in series [1] (pH 6) it was -0.363; in series [1] (pH 6.5, modulator: ogerin), -2.27.

Consider I107del, for which the cAMP reporter score was -0.67 in series [1] (pH 5.5); -0.656 in series [1] (pH 6); -1.25 in series [1] (pH 6, modulator: ogerin); -1.11 in series [1] (pH 6.5, modulator: ogerin). Moreover, the surface expression score in series [2] is -2.41.

In the case of I107_S108insG, the cAMP reporter score in series [1] (pH 5.5) was -1.94; in series [1] (pH 6), -0.831; in series [1] (pH 6, modulator: ogerin), -2.22; in series [1] (pH 6.5, modulator: ogerin) it was -0.509. Further, the surface expression score in series [2] was -2.33.

As to C114_S116del, the cAMP reporter score in series [1] (pH 5.5) is -1.93; in series [1] (pH 6), -0.906; in series [1] (pH 6, modulator: ogerin), -1.58; in series [1] (pH 6.5, modulator: ogerin), -1.46. In addition, the surface expression score in series [2] is -1.51.
